Whole data set: some 81,000 sequences, median “one-hybrid fitness for binding parS DNA” near -0.17, cut for the highest 2% near 0.51. This is one part of the list.
B1: Caulobacter ParB omega fusion; a variant is named by its letters at X, in order, B8GW30 (parent)
chain: MESVVVGEPGMSEGRRGLGRGLSALLGEVDAAPAQAPGEQLGGSREAPIEILQRNPDQPRRTFREEDLEDLSNSIREKGVLQPILVRPSPDTAGEYQIVAGERAWRAAQRAGLKTVPIMVRELDDLAVLEIGIIENVQRADLNVLEEALSYKVLMEKFERTQENIAQTIGKSXSHVANXMRLLXLPDEVQSYLVSGELTAXHARAIAAAADPVALAKQIIEGGLSVRETEALARKAPNLSAGKSKGGRPPRVKDTDTQALESDLSSVLGLDVSIDHRGSTGTLTITYATLEQLDDLCNRLTRGI

Variants of: B1
Experiment: one-hybrid fitness for binding parS DNA (scaled: cognate 1, non-cognate 0); higher = stronger binding
Conditions: with parS DNA site
In short: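 Values were rescaled so that cognate is 1 and non-cognate is 0. Each is a fitness, the log change in a variant's read ratio to wild type from Illumina reads of plasmids before and after selection, with three replicate libraries pooled and variants under 10 reads dropped. Selection of the Caulobacter ParB libraries, four specificity codons randomised, used E. coli USO with a HIS3 reporter, site 19 bp from the promoter, on M9-minus-histidine with 0.1 mM IPTG and 5 mM 3-AT for 48 hours at 37°C.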

| Variant | one-hybrid fitness for binding parS DNA |
| --- | --- |
| PSTL | ≤ 0.2 |
| QTMF | ≤ 0.2 |
| GSLE | ≤ 0.2 |
| PLDP | ≤ 0.2 |
| TMGV | ≤ 0.2 |
| TYGG | ≤ 0.2 |
| AVSS | ≤ 0.2 |
| VDQR | ≤ 0.2 |
| NYKW | ≤ 0.2 |
| TSEC | ≤ 0.2 |
| HYAT | ≤ 0.2 |
| EDGG | ≤ 0.2 |
| TTEE | ≤ 0.2 |
| YQCG | ≤ 0.2 |
| LQDA | ≤ 0.2 |
| HDPW | ≤ 0.2 |
| NRIS | ≤ 0.2 |
| ALMA | ≤ 0.2 |
| NQMS | ≤ 0.2 |
| KKWT | ≤ 0.2 |
| LMSS | ≤ 0.2 |
| ALSL | ≤ 0.2 |
| LGRG | ≤ 0.2 |
| DSLM | ≤ 0.2 |
| EYTV | ≤ 0.2 |

| Variant | one-hybrid fitness for binding parS DNA |
| --- | --- |
| PETW | ≤ 0.2 |
| FNGE | ≤ 0.2 |
| KKKV | ≤ 0.2 |
| LRTT | ≤ 0.2 |
| IFRR | ≤ 0.2 |
| LCLE | ≤ 0.2 |
| RQKE | ≤ 0.2 |
| DSQD | ≤ 0.2 |
| IPYW | ≤ 0.2 |
| RFTF | 0.202 |
| NYDL | ≤ 0.2 |
| SKLS | ≤ 0.2 |
| VKCF | ≤ 0.2 |
| ETHC | ≤ 0.2 |
| PHYL | ≤ 0.2 |
| RREF | ≤ 0.2 |
| VVIC | ≤ 0.2 |
| SYRH | ≤ 0.2 |
| MEAG | ≤ 0.2 |
| DSDK | ≤ 0.2 |
| NGYD | ≤ 0.2 |
| VYAL | ≤ 0.2 |
| GAHC | ≤ 0.2 |
| RRMK | ≤ 0.2 |
| IETG | ≤ 0.2 |

| Variant | one-hybrid fitness for binding parS DNA |
| --- | --- |
| ARSS | ≤ 0.2 |
| SWTG | ≤ 0.2 |
| SPMV | ≤ 0.2 |
| GQNG | ≤ 0.2 |
| VFWT | ≤ 0.2 |
| YSMR | ≤ 0.2 |
| GFLT | ≤ 0.2 |
| AFNR | ≤ 0.2 |
| MLTD | ≤ 0.2 |
| EILS | ≤ 0.2 |
| KLAN | ≤ 0.2 |
| SMGH | ≤ 0.2 |
| RKGC | 0.827 |
| NIAR | ≤ 0.2 |
| HYPC | ≤ 0.2 |
| PYVF | ≤ 0.2 |
| PTFF | ≤ 0.2 |
| AVAP | ≤ 0.2 |
| AWGV | ≤ 0.2 |
| DQMR | ≤ 0.2 |
| EYAG | ≤ 0.2 |
| RWYR | ≤ 0.2 |
| PPTF | ≤ 0.2 |
| KDVA | ≤ 0.2 |
| MQDR | ≤ 0.2 |

| Variant | one-hybrid fitness for binding parS DNA |
| --- | --- |
| HSKM | ≤ 0.2 |
| GDIS | ≤ 0.2 |
| RHTS | 0.893 |
| LGTW | ≤ 0.2 |
| TPRP | ≤ 0.2 |
| DCVT | ≤ 0.2 |
| VSSC | ≤ 0.2 |
| MANV | ≤ 0.2 |
| SEGS | ≤ 0.2 |
| FRLP | ≤ 0.2 |
| TSMM | ≤ 0.2 |
| FTTS | ≤ 0.2 |
| TVVV | ≤ 0.2 |
| DYRM | ≤ 0.2 |
| TSFW | ≤ 0.2 |
| MDHG | ≤ 0.2 |
| AIVV | ≤ 0.2 |
| VECG | ≤ 0.2 |
| HHAW | ≤ 0.2 |
| RPCK | ≤ 0.2 |
| RTDP | ≤ 0.2 |
| QTMR | ≤ 0.2 |

— a collection of fitness landscapes (doi:10.1016/j.celrep.2020.107928)
